Laboratory results as given in PubChem BioAssay (NCATS).
Inconclusive results, whose numbers are uncertain, are shown with a selection of clear calls. Where the call is inconclusive, the potency comes from a doubtful curve fit. Activity calls are given as the source filed them. Calls follow the shape of the dose curve; as a rule, active = well fitted cell-killing curve with a large enough effect; inconclusive = small, poorly fitted or top-dose-only effect; inactive = no such curve, though single readings can be large or run the other way.

Test: qHTS of pediatric cancer cell lines to identify multiple opportunities for drug repurposing: Primary screen for SK-N-MC cells (AID 1347093);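 as to activity change, negative = cytotoxic: plate controls were DMSO neutral control for no effect and bortezomib for full effect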
Conditions: SK-N-MC viability, CellTiter-Glo luminescence, 48 h; activity change, negative = cytotoxic: at 46 µM (top of the series) unless noted
In short: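 Metabolically active cells were quantified by ATP-dependent luminescence (CellTiter-Glo, 15 min at room temperature) following 48 h treatment. Cells had been plated at 500-1,000 per well and settled for 5 h beforehand.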
Potency is read from the fitted curve at half-maximal effect; tags tell the direction and shape of the fitted curve.

Q: Which activity change, negative = cytotoxic does the source give for `COc1ccccc1N1CCNCC1` here?
A: Its activity change, negative = cytotoxic is inconclusive: -38.4% [cytotoxic].

Q: For `CC(C)Oc1cccc(NC(=O)c2ccccc2C(F)(F)F)c1`, which Potency is on record?
A: Its Potency is inconclusive: 68.6 µM [cytotoxic, partial curve, poor fit].

Q: With `CC[N+]1(C)CCCC(OC(=O)C(O)(c2ccccc2)c2ccccc2)C1` (centres undefined) as the molecule, how does the Potency read?
A: Its Potency is “inactive”.

Q: Which Potency does the source give for `C#CC1(O)CCC2C3CCC4=CC(=O)CCC4(C)C3CCC21C` (centres undefined) here?
A: Its Potency is inconclusive: 37.2 µM [cytotoxic, single point].

Q: For `C[C@H](N)[C@H](O)c1ccc(O)c(O)c1`, which Potency is on record?
A: The Potency was inconclusive: 16.8 µM [cytotoxic, partial curve, poor fit].

Q: Which Potency does the source give for `O=C(O)C(=O)c1cn(Cc2ccccc2)c2ccc(-c3ccc(OC(F)(F)F)cc3)cc12` here?
A: The Potency was inconclusive: 37.2 µM [cytotoxic, single point].

Q: For `N#Cc1nn(-c2c(Cl)cc(C(F)(F)F)cc2Cl)c(N)c1S(=O)C(F)(F)F` (centres undefined), which Potency is on record?
A: Its Potency is inconclusive: 33.5 µM [cytotoxic, single point].

Q: For `NCC(CC(=O)O)c1ccc(Cl)cc1` (centres undefined), which activity change, negative = cytotoxic is on record?
A: Its activity change, negative = cytotoxic is inconclusive: -33.4% [cytotoxic] [at 0.597 µM].

Q: Which Potency does the source give for `C[C@]12C=CC(=O)C=C1CC[C@@H]1[C@@H]2CC[C@@]2(C)[C@H]1CC[C@]2(C)O` here?
A: The Potency was inconclusive: 29.9 µM [cytotoxic, partial curve, poor fit].

Q: With `CCc1c(C(=O)C(N)=O)c2c(OCC(=O)O)cccc2n1Cc1ccccc1` as the molecule, how does the Potency read?
A: The Potency was inconclusive: 2.96 µM [cytotoxic, full curve].

Q: For `CC(C)CC(N(C)C)C1(c2ccc(Cl)cc2)CCC1` (centres undefined), which Potency is on record?
A: Its Potency is inconclusive: 18.7 µM [cytotoxic, partial curve].

Q: With `C1=C2CCCN[C@H]2[C@@H]2C[C@H]1[C@@H]1CCCCN1C2` as the molecule, how does the Potency read?
A: The Potency was inconclusive: 26.4 µM [cytotoxic, single point].

Q: For `CC(CCc1ccccc1)NC(C)C(O)c1ccc(O)cc1` (centres undefined), which Potency is on record?
A: The Potency was inconclusive: 75 µM [cytotoxic, partial curve, poor fit].

Q: With `c1ccc(CN2CCNCC2)cc1` as the molecule, how does the Potency read?
A: The Potency was “inactive”.

Q: Which Potency does the source give for `CC1=C2C[C@@H]3[C@@H](CC=C4C[C@@H](O)CC[C@@]43C)[C@@H]2CC[C@]12O[C@H]1C[C@H](C)CN[C@H]1[C@H]2C` here?
A: The Potency was “inactive”.

Q: Which Potency does the source give for `NCC(O)c1ccc(O)cc1` (centres undefined) here?
A: The Potency was “inactive”.

Q: Which Potency does the source give for `NC(=O)c1cc([N+](=O)[O-])cc([N+](=O)[O-])c1` here?
A: Its Potency is “inactive”.

Q: With `CC(O)=C(C#N)C(=O)Nc1cc(Br)ccc1Br` as the molecule, how does the Potency read?
A: Its Potency is active: 0.332 µM.

Q: Which Potency does the source give for `CCN(CC)C(=O)c1ccc(C2=CC3(CCNCC3)Oc3cccc(O)c32)cc1` here?
A: Its Potency is “inactive”.

Q: With `c1ccc(CCCN2CCN(CCOC(c3ccccc3)c3ccccc3)CC2)cc1` as the molecule, how does the Potency read?
A: The Potency was inconclusive: 26.4 µM [cytotoxic, single point].

Q: Which Potency does the source give for `CC(C)=CC1C(C(=O)OCN2C(=O)C3=C(CCCC3)C2=O)C1(C)C` (centres undefined) here?
A: The Potency was inconclusive: 33.5 µM [cytotoxic, single point].

Q: For `O=C(O)CNC(=O)c1c(O)c2ccccc2n(Cc2ccccc2)c1=O`, which Potency is on record?
A: The Potency was inconclusive: 23.5 µM [cytotoxic, single point].

Q: With `CC(C)N(CCNC(=O)CN1CCCC1=O)C(C)C` as the molecule, how does the Potency read?
A: Its Potency is “inactive”.

Q: With `COc1ccc(C(=O)c2c(C)n(CCN3CCOCC3)c3ccccc23)cc1` as the molecule, how does the Potency read?
A: Its Potency is inconclusive: 33.5 µM [cytotoxic, partial curve, poor fit].

Q: With `CC(Cc1ccccc1)NCc1ccccc1Cl` (centres undefined) as the molecule, how does the Potency read?
A: Its Potency is inconclusive: 0.0038 µM [cytotoxic, full curve, poor fit].

Q: For `C[C@]12CCC(=O)C=C1CC[C@@H]1[C@@H]2CC[C@@]2(C)[C@H]1CC[C@]2(C)O`, which Potency is on record?
A: Its Potency is inconclusive: 33.5 µM [cytotoxic, partial curve, poor fit].

Q: With `CC[C@]1(O)CC[C@H]2[C@@H]3CCC4=CCCC[C@@H]4[C@H]3CC[C@@]21C` as the molecule, how does the Potency read?
A: The Potency was inconclusive: 33.5 µM [cytotoxic, partial curve, poor fit].

Q: Which Potency does the source give for `CCOP(=S)(OCC)Oc1ccc2c(C)c(Cl)c(=O)oc2c1` here?
A: The Potency was “inactive”.

Q: With `CC[n+]1c(-c2ccccc2)c2cc(N)ccc2c2ccc(N)cc21` as the molecule, how does the Potency read?
A: Its Potency is active: 2.11 µM.

Q: With `O=C1c2ccccc2C(=O)C1C(=O)C(c1ccccc1)c1ccccc1` as the molecule, how does the Potency read?
A: The Potency was inconclusive: 33.5 µM [cytotoxic, single point].

Q: Which Potency does the source give for `O=P1(NCCCl)OCCCN1CCCl` (centres undefined) here?
A: The Potency was inconclusive: 26.4 µM [cytotoxic, single point].

Q: For `C[N+]1(C)[C@@H]2CC[C@H]1CC(OC(=O)C(CO)c1ccccc1)C2` (some centres undefined), which Potency is on record?
A: Its Potency is inconclusive: 0.0038 µM [cytotoxic, full curve, poor fit].

Q: Which Potency does the source give for `CC(=O)OCC1=C(C(=O)O)N2C(=O)[C@@H](N)[C@@H]2SC1` here?
A: Its Potency is active: 23.5 µM.

Q: With `Nc1ccc(Cl)cc1C(=O)c1ccccc1F` as the molecule, how does the Potency read?
A: The Potency was inconclusive: 29.9 µM [cytotoxic, single point].

Q: With `O=[N+]([O-])c1c(Cl)c(Cl)cc(Cl)c1Cl` as the molecule, how does the Potency read?
A: The Potency was inconclusive: 0.0069 µM [cytotoxic, full curve, poor fit].

Q: Which Potency does the source give for `Nc1ccc(N)cc1` here?
A: Its Potency is inconclusive: 33.5 µM [cytotoxic, single point].

Q: With `COc1ccc2c(c1)[C@]13CCCCC1C(C2)N(C)CC3` (some centres undefined) as the molecule, how does the Potency read?
A: Its Potency is inconclusive: 26.4 µM [cytotoxic, single point].

Q: With `COc1cccc2c1[C@]13CCN(CC4CC4)[C@H](C2)[C@]1(OC)CCC(=O)C3` as the molecule, how does the Potency read?
A: The Potency was “inactive”.

Q: For `COc1cccc(C(=O)CCN[C@@H](C)[C@H](O)c2ccccc2)c1`, which Potency is on record?
A: Its Potency is inconclusive: 33.5 µM [cytotoxic, single point].
